In publication PMC10965993 one finds binding data, which are given here for five molecules.

Protein sequences, listed by entry. Tags and fused reporters are not part of them. Lines headed by an entry give the natural chain unless they say otherwise; changes in a name come on top. Chains listed by the source or under a name are the forms on record and can include a tag or linker. Residues count along the entry.
UniProt P29317: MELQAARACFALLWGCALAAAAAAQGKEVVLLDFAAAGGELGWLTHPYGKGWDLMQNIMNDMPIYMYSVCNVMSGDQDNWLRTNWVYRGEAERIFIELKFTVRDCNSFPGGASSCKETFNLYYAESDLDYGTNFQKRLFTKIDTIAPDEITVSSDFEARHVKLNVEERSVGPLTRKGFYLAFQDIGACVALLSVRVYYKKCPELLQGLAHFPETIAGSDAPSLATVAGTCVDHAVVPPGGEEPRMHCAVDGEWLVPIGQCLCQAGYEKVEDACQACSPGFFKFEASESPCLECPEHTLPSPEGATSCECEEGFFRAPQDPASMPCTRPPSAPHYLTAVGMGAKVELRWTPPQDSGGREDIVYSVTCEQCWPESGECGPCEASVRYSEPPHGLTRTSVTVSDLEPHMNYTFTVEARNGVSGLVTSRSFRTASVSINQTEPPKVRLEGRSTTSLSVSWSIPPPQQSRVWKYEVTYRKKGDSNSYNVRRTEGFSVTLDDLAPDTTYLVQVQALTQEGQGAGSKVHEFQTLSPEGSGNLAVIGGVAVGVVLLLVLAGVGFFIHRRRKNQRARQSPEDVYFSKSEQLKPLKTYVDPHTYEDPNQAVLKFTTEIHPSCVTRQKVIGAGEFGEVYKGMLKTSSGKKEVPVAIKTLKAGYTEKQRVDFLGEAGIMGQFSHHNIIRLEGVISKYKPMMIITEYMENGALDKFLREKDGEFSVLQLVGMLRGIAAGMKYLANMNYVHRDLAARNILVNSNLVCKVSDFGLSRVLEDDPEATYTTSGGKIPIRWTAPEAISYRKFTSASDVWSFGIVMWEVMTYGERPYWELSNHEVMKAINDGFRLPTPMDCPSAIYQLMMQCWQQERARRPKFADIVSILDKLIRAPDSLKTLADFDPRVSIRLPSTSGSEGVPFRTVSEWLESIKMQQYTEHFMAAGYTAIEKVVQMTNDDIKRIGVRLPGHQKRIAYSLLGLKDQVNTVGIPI
Flag-tagged EPHA2 (Flag-EPHA2): residues 24-976 of P29317
EPHA2-F2 (559-976): residues 559-976 of P29317

In assay [1] the target is EPHA2, endogenous (human (endogenous in cell lysates, cell line not named)) (UniProt P29317). The assay is described as follows: co-IP; endogenous proteins; cell lysates immunoprecipitated with control IgG, anti-USP3 or anti-EPHA2 antibodies, protein A/G-Sepharose beads, washed 3 times with cold PBS, Western blot. (In general: Immunoblotting shows a protein as a band on a membrane.)

Assay [2] deals with Flag-tagged EPHA2 (Flag-EPHA2) (UniProt P29317). In words: co-IP; HEK293T cells transfected with the indicated Myc- and Flag-tagged constructs; immunoprecipitated with anti-Flag or anti-Myc antibodies, Western blot of lysates and precipitates.
A further assay addresses EPHA2-F2 (559-976) (UniProt P29317). Described as above.

Numbering of substitutions follows the chain as printed. Names may count otherwise. These are yes or no findings as the source states them, for the method shown. Binding seen in cells or lysates may run through a third protein. Some results given as binding are weak or reduced against the parent protein; the word gives no strength. For part of these data: Where a sequence is shown, tags or fusion partners need not be part of it.

B1: Ubiquitin-specific protease 3 (USP3), endogenous (enzyme, UniProt Q9Y6I4 1-520)
chain: MECPHLSSSVCIAPDSAKFPNGSPSSWCCSVCRSNKSPWVCLTCSSVHCGRYVNGHAKKHYEDAQVPLTNHKKSEKQDKVQHTVCMDCSSYSTYCYRCDDFVVNDTKLGLVQKVREHLQNLENSAFTADRHKKRKLLENSTLNSKLLKVNGSTTAICATGLRNLGNTCFMNAILQSLSNIEQFCCYFKELPAVELRNGKTAGRRTYHTRSQGDNNVSLVEEFRKTLCALWQGSQTAFSPESLFYVVWKIMPNFRGYQQQDAHEFMRYLLDHLHLELQGGFNGVSRSAILQENSTLSASNKCCINGASTVVTAIFGGILQNEVNCLICGTESRKFDPFLDLSLDIPSQFRSKRSKNQENGPVCSLRDCLRSFTDLEELDETELYMCHKCKKKQKSTKKFWIQKLPKVLCLHLKRFHWTAYLRNKVDTYVEFPLRGLDMKCYLLEPENSGPESCLYDLAAVVVHHGSGVGSGHYTAYATHEGRWFHFNDSTVTLTDEETVVKAKAYILFYVEHQAKAGSDKL
As to B1, the binding entry in assay [1] is given as “binds”.

B2: Myc-tagged human USP3 (Myc-USP3) (enzyme, UniProt Q9Y6I4 1-520)
chain: B1 chain
Turning to B2, the binding entry (in assay [2]; in the assay with EPHA2-F2 (559-976)) was “binds” each time.

B3: Myc-USP3 R203A (enzyme, UniProt Q9Y6I4 1-520)
chain: B1 chain with R203A
Turning to B3, the binding entry in assay [2] was “no binding”.

B4: USP3-F2 (159-520) (domain or fragment, UniProt Q9Y6I4 159-520)
chain: TGLRNLGNTCFMNAILQSLSNIEQFCCYFKELPAVELRNGKTAGRRTYHTRSQGDNNVSLVEEFRKTLCALWQGSQTAFSPESLFYVVWKIMPNFRGYQQQDAHEFMRYLLDHLHLELQGGFNGVSRSAILQENSTLSASNKCCINGASTVVTAIFGGILQNEVNCLICGTESRKFDPFLDLSLDIPSQFRSKRSKNQENGPVCSLRDCLRSFTDLEELDETELYMCHKCKKKQKSTKKFWIQKLPKVLCLHLKRFHWTAYLRNKVDTYVEFPLRGLDMKCYLLEPENSGPESCLYDLAAVVVHHGSGVGSGHYTAYATHEGRWFHFNDSTVTLTDEETVVKAKAYILFYVEHQAKAGSDKL
For the molecule B4, in assay [2], the binding entry is listed as “binds”.

B5: USP3-F1 (1-158) (domain or fragment, UniProt Q9Y6I4 1-158)
chain: MECPHLSSSVCIAPDSAKFPNGSPSSWCCSVCRSNKSPWVCLTCSSVHCGRYVNGHAKKHYEDAQVPLTNHKKSEKQDKVQHTVCMDCSSYSTYCYRCDDFVVNDTKLGLVQKVREHLQNLENSAFTADRHKKRKLLENSTLNSKLLKVNGSTTAICA
Regarding B5, in assay [2], the binding entry was “no binding”.
